In patent US20150079000A1, “Labelled Quinoxaline Derivatives as Multimodal Radiopharmaceuticals and Their Precursors” (INSTITUT NATIONAL DE LA SANTET DE LA RECHERCHE MEDICALE, priority 2012, published 2015):
Further values from the same series stand in other lists.

System: B16 murine melanoma tumours
Assay: Ex vivo biodistribution study for compound [125I](1)
Assay type: in vivo, C57BL/6J mice
Protocol: Twenty four B16BL6 primary melanoma bearing mice were intravenously injected with 2.2 MBq of [^1251]1 and sacrificed 1 h, 3 h, 6 h, 24 h, 72 h and 10 days after tracer injection (n=4/time point). Tumours and major organs and tissues were promptly excised, harvested, weighted and their radioactivity counted using a calibrated γ-counter with a […] energy window. After radioactive decay correction, results were expressed as percentage of injected dose per gram of tissue (% ID/g).

**Q.** How did the “% ID/g Eyes” value (1 h p.i.) turn out when `CCN(CCNC(=O)c1cnc2cc([125I])ccc2n1)CCOCCOCCOCCF` [[^125I](1)] was run?
**A.** The value was 15.01 ± 4.84 % ID/g.

**Q.** What about the “% ID/g Tumour” value (1 h p.i.) of the same compound?
**A.** The value was 11.99 ± 3.52 % ID/g.

**Q.** And the “% ID/g Eyes” value (3 h p.i.)?
**A.** Its value is 15.48 ± 2.57 % ID/g.

**Q.** What about the “% ID/g Tumour” value (3 h p.i.) of the same compound?
**A.** Its value is 17.69 ± 1.10 % ID/g.

**Q.** What about the “% ID/g Eyes” value (6 h p.i.) of the same compound?
**A.** The value was 17.40 ± 2.21 % ID/g.

**Q.** And the “% ID/g Tumour” value (6 h p.i.)?
**A.** Its value is 12.04 ± 4.39 % ID/g.

**Q.** What about the “% ID/g Eyes” value (24 h p.i.) of the same compound?
**A.** Its value is 20.30 ± 6.08 % ID/g.

**Q.** And the “% ID/g Tumour” value (24 h p.i.)?
**A.** The value was 10.47 ± 3.22 % ID/g.

**Q.** What about the “% ID/g Blood” value (72 h p.i.) of the same compound?
**A.** The value was 0.03 ± 0.01 % ID/g.

**Q.** And the “% ID/g Eyes” value (72 h p.i.)?
**A.** Its value is 14.87 ± 1.18 % ID/g.

**Q.** And the “% ID/g Tumour” value (72 h p.i.)?
**A.** Its value is 8.74 ± 0.38 % ID/g.

**Q.** What about the “% ID/g Blood” value (10 d p.i.) of the same compound?
**A.** Its value is 0.00 ± 0.00 % ID/g.

**Q.** What about the “% ID/g Eyes” value (10 d p.i.) of the same compound?
**A.** The value was 9.97 ± 2.24 % ID/g.

**Q.** What about the “% ID/g Tumour” value (10 d p.i.) of the same compound?
**A.** Its value is 1.20 ± 0.54 % ID/g.
